Data reported in the supplement of paper PMC4604168 (melanoma cell lines).
Some of the results follow. Most values come without repeats; read them as rough.

Tested on: COLO829
Experiment: cell count relative to DMSO control; melanoma cells; higher = more viable cells
Conditions: library dose: low library concentration; 72 h
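Also: cell number obtained by counting DAPI-stained nuclei in high-throughput microscope images with image analysis software, screen run in 1,536-well plates.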

SMILES | cell count [%]
COc1ccc(C2=N[C@@H](c3ccc(Cl)cc3)[C@@H](c3ccc(Cl)cc3)N2C(=O)N2CCNC(=O)C2)c(OC(C)C)c1 [Nutlin-3] + CC(C)C[C@H](NC(=O)[C@H](Cc1ccccc1)NC(=O)c1cnccn1)B(O)O [Bortezomib] (first compound 0.1 µM, partner dose 0.001 µM) | 75.6
CC(C)C[C@H](NC(=O)[C@H](Cc1ccccc1)NC(=O)c1cnccn1)B(O)O [Bortezomib] + CNC(=O)c1cc(Oc2ccc(NC(=O)Nc3ccc(Cl)c(C(F)(F)F)c3)cc2)ccn1 [sorafenib] (first compound 0.001 µM, partner dose 0.4 µM) | 42.7
Cc1cc(Nc2cc(N3CCN(C)CC3)nc(/C=C/c3ccccc3)n2)n[nH]1 + Nc1ccn([C@@H]2O[C@H](CO)[C@@H](O)C2(F)F)c(=O)n1 [gemcitabine] (first compound 0.04 µM, partner dose 0.0004 µM) | 111
CC(C)C[C@H](NC(=O)[C@H](Cc1ccccc1)NC(=O)c1cnccn1)B(O)O [Bortezomib] + Cc1nc(Nc2ncc(C(=O)Nc3c(C)cccc3Cl)s2)cc(N2CCN(CCO)CC2)n1 [dasatanib] (first compound 0.001 µM, partner dose 0.004 µM) | 55.9
COc1ccc(C2=N[C@@H](c3ccc(Cl)cc3)[C@@H](c3ccc(Cl)cc3)N2C(=O)N2CCNC(=O)C2)c(OC(C)C)c1 [Nutlin-3] + C[C@@H](Oc1cc(-c2cnn(C3CCNCC3)c2)cnc1N)c1c(Cl)ccc(F)c1Cl [Crizotinib] (first compound 0.1 µM, partner dose 0.2 µM) | 73.5
